From PubChem BioAssay AID1345083 (National Center for Advancing Translational Sciences (NCATS), 2018)
Out of some 94,000 compounds screened, about 6,200 (6.6%) were called active. Inconclusive means that the source gave no clear call. Such entries were picked first, then a sample of the others. Calls come from the whole dose curve; as a rule, active = well fitted inhibition curve with a large enough effect; inconclusive = small, poorly fitted or top-dose-only effect; inactive = flat fitted curve, though single readings scatter. A potency beside an inconclusive call is a rough fit, not a confirmed value.

Test: Cytotoxic Profiling in HEK 293 Cell Line of Diverse Libraries Using Quantitative High-Throughput Screening; note: nearly all actives have a fitted effect of over 60% in size
Details: HEK 293 viability, ATP luminescence (CellTiter-Glo), 48-72 h; activity change, negative = cytotoxicity: at 115 µM (top of the series) unless noted; series mostly up to 115 µM
How it was run: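 Pintool-delivered compounds were incubated with HEK 293 cells (250 cells/well) at 37 degree Celsius for 48 or 72 hr. ATP-dependent luminescence (CellTiter-Glo) then reported remaining viable cells.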
% is set by controls: 0 for no effect and ±100 for the full control effect; potency is the fitted concentration of half-maximal effect; tags give direction and shape of the fitted curve.

**Q.** With O=C(c1cccc(Cl)c1)N1CCC[C@H]1c1nc(-c2ccccc2)no1 as the compound, how does the Potency read?
**A.** inconclusive: 56.2 µM [inhibitor, partial curve, poor fit]

**Q.** Which “activity change, negative = cytotoxicity” value does the source give for N#Cc1ccc(C(=O)N2CCN(C(=O)c3nnn4c3COC(c3ccc(Cl)cc3)C4)CC2)cc1 (stereo not given) here?
**A.** inactive: -20.8%

**Q.** For COc1cccc(-c2cc(C3CCN(C(=O)c4ccc(Cl)cc4)CC3)[nH]n2)c1, which Potency is on record?
**A.** active: 44.7 µM

**Q.** Which Potency does the source give for O=C(c1ccsc1)N1CCC2(CC1)CC(N(Cc1ccccc1)C1CC1)CCO2 (stereo not given) here?
**A.** inconclusive: 50.1 µM [inhibitor, partial curve, poor fit]

**Q.** For CC(C)CCN1CCC(Oc2ccc(C(N)=O)cn2)CC1, which “activity change, negative = cytotoxicity” value is on record?
**A.** inactive: 5.13%

**Q.** With COCC(=O)Nc1ccc(-c2noc([C@@H]3CCCN3Cc3cc4ccccc4o3)n2)cn1 as the compound, how does the Potency read?
**A.** active: 70.8 µM

**Q.** With Cc1ccsc1CN1CCCCC12Cc1ccccc1CNC2=O (stereo not given) as the compound, how does the Potency read?
**A.** active: 31.6 µM

**Q.** With O=C(Cc1ccc(F)cc1)N1CCC(C(=O)N2CCC(c3ccccc3)CC2)CC1 as the compound, how does the Potency read?
**A.** inconclusive: 31.6 µM [inhibitor, partial curve, poor fit]

**Q.** Which Potency does the source give for CC(C)c1ccc(CC(=O)N2CCCc3ncc(C(=O)NCc4ccc(F)cc4)cc32)cc1 here?
**A.** inconclusive: 79.4 µM [inhibitor, partial curve, poor fit]

**Q.** For O=C(NC1CCCCC1)C1CN(C(=O)c2ccccc2)CC12CCOCC2 (stereo not given), which “activity change, negative = cytotoxicity” value is on record?
**A.** inactive: 1.27%

**Q.** With COc1ccc(NC(=O)O[C@@H]2CO[C@H]3[C@@H]2OC[C@@H]3NC(=O)Nc2cccc(C#N)c2)cc1 as the compound, how does the “activity change, negative = cytotoxicity” value read?
**A.** inactive: -13.1%

**Q.** For CCOc1ccc(C(O)Cn2ccn3nc(-c4ccccc4C)cc3c2=O)cc1 (stereo not given), which Potency is on record?
**A.** active: 35.5 µM

**Q.** With CC(C)(C)CC(=O)N1CC[C@@H](CC(=O)O)[C@@H](CCN2CCN(c3ccccc3)CC2)C1 as the compound, how does the “activity change, negative = cytotoxicity” value read?
**A.** inactive: -5.34% [at 172 µM]

**Q.** For Fc1ccccc1-c1noc(NCc2ccccc2)n1, which Potency is on record?
**A.** inconclusive: 50.1 µM [inhibitor, partial curve, poor fit]

**Q.** With O=C(c1ccc[nH]1)N1CCC2(CC1)N=C(c1ccc(Cl)cc1)NO2 as the compound, how does the Potency read?
**A.** inconclusive: 79.4 µM [inhibitor, partial curve, poor fit]

**Q.** For CC(C)CNC(=O)c1ccc2oc(-c3ccnc(Cl)c3)nc2c1, which Potency is on record?
**A.** active: 89.1 µM

**Q.** With CCCC(=O)N1Cc2ccccc2CC2(CCN(Cc3ccc(O)cc3)C2)C1 (stereo not given) as the compound, how does the Potency read?
**A.** inconclusive: 79.4 µM [inhibitor, partial curve, poor fit]

**Q.** With O=C(NCCc1ccccn1)c1ccc2c(c1)N(S(=O)(=O)c1ccccc1)CC2 as the compound, how does the Potency read?
**A.** inconclusive: 56.2 µM [inhibitor, partial curve, poor fit]

**Q.** With CC(C)S(=O)(=O)N1CCc2c(c(CN3CCOCC3)nn2C)C1 as the compound, how does the “activity change, negative = cytotoxicity” value read?
**A.** inactive: -14%

**Q.** Which Potency does the source give for O=C1OC[C@@H]2CCN(Cc3cccc(Cl)c3)Cc3ccc(F)cc3N12 here?
**A.** inconclusive: 89.1 µM [inhibitor, partial curve, poor fit]

**Q.** With CCOc1ccc(CC(=O)N2CCN(c3cc(-c4ccccc4)[nH]n3)CC2)cc1 as the compound, how does the Potency read?
**A.** inconclusive: 50.1 µM [inhibitor, partial curve, poor fit]

**Q.** Which “activity change, negative = cytotoxicity” value does the source give for COC(=O)N1CCc2nc(C)nc(-c3ccc(Cl)cc3)c2CC1 here?
**A.** inactive: -23.4% [at 172 µM]

**Q.** With O=C1NCCCCCCN(Cc2ccccc2)[C@H]2CCC[C@@H]12 as the compound, how does the Potency read?
**A.** inconclusive: 5.62 µM [inhibitor, full curve, poor fit]

**Q.** For COc1ccccc1-c1ccnc(N[C@H]2CO[C@H]3[C@@H]2OC[C@@H]3NS(C)(=O)=O)n1, which Potency is on record?
**A.** inconclusive: 112 µM [inhibitor, partial curve, poor fit]

**Q.** For Cc1cnc(NC(=O)c2ccc3c(c2)OCCN(CCC(F)(F)F)C3)s1, which Potency is on record?
**A.** inconclusive: 25.1 µM [inhibitor, full curve]

**Q.** For Cc1cccc(C(=O)N2CCC(Cc3nc(C(C)C)no3)CC2)c1, which Potency is on record?
**A.** inconclusive: 44.7 µM [inhibitor, partial curve, poor fit]

**Q.** With Cc1ccsc1C(=O)N1CCCCCC1c1nnc(-c2ccccc2)o1 (stereo not given) as the compound, how does the Potency read?
**A.** inconclusive: 89.1 µM [inhibitor, single point]

**Q.** With COc1cccc(CNC(=O)[C@@H]2C[C@@H](O)CN2C2CCN(C(=O)c3cccc(C)c3)CC2)c1 as the compound, how does the “activity change, negative = cytotoxicity” value read?
**A.** inactive: -27.2%

**Q.** For CN1C(=O)C(CC(=O)NCc2noc(-c3c(F)cccc3F)n2)N(C)C1=O (stereo not given), which “activity change, negative = cytotoxicity” value is on record?
**A.** inactive: 1.05%

**Q.** For COc1cc(CNC(=O)c2cc(-c3ccc(F)cc3)cc3ncn(C)c23)ccn1, which Potency is on record?
**A.** inconclusive: 89.1 µM [inhibitor, partial curve]

**Q.** Which Potency does the source give for O=C(Cc1ccsc1)N1CCC2(CCCN(CC3CCC3)C2=O)C1 (stereo not given) here?
**A.** inconclusive: 89.1 µM [inhibitor, partial curve, poor fit]

**Q.** Which Potency does the source give for CCCCc1cc(C[C@@H]2C[C@H](NC(C)=O)C2(C)C)no1 here?
**A.** inconclusive: 112 µM [inhibitor, partial curve, poor fit]

**Q.** For CCCn1c(C)c(CC(=O)NCC2CCCOC2)c2c1CC(C)(C)CC2=O (stereo not given), which “outcome” value is on record?
**A.** inactive

**Q.** Which “activity change, negative = cytotoxicity” value does the source give for CCC1c2nccn2CCCN1C(=O)Cc1ccc(OC)cc1 (stereo not given) here?
**A.** inactive: -12.2%

**Q.** For NC(=O)[C@H](Cc1cccs1)NC(=O)[C@@H]1[C@@H](NC(=O)Nc2ccc(F)cc2F)CCN1C(=O)c1cnccn1, which “activity change, negative = cytotoxicity” value is on record?
**A.** inactive: -22.1%

**Q.** For COCCn1c2c(c(=O)n1-c1ccccc1)CCN(C(=O)COc1ccccc1)C2, which “activity change, negative = cytotoxicity” value is on record?
**A.** inactive: -17.4% [at 172 µM]

**Q.** For CCCN(C)C(=O)c1cn2ccnc(-c3ccc(C)cc3)c2n1, which Potency is on record?
**A.** inconclusive: 50.1 µM [inhibitor, partial curve, poor fit]

**Q.** With O=[S+]([O-])(c1ccccc1)N1CC2(COCCN(CC3CC3)C2)C1 as the compound, how does the “activity change, negative = cytotoxicity” value read?
**A.** inactive: -19.6% [at 172 µM]

**Q.** For Cn1cc(-c2cc(=O)c3ccnc(-c4cccc5[nH]ccc45)c3o2)cn1, which Potency is on record?
**A.** inconclusive: 70.8 µM [inhibitor, partial curve, poor fit]

**Q.** Which Potency does the source give for O=C(c1ccc(Cl)cc1)N1CC2(CCCN2CC2CCCCC2)Cc2ccccc21 (stereo not given) here?
**A.** inconclusive: 56.2 µM [inhibitor, partial curve, poor fit]

**Q.** For Cc1ccc2c(C)c(C(=O)N3CC(OCc4ccccc4F)C3)oc2c1, which Potency is on record?
**A.** inconclusive: 89.1 µM [inhibitor, single point]

**Q.** With Cc1ccccc1[C@H]1C[C@@H](O)[C@@H](O)[C@@H]1NS(=O)(=O)c1ccc(C(F)(F)F)cc1 as the compound, how does the Potency read?
**A.** active: 100 µM

**Q.** Which Potency does the source give for COc1ccc(-c2cc(N3CCCN(C(=O)Cc4ccccc4Cl)CC3)n[nH]2)cc1 here?
**A.** inconclusive: 50.1 µM [inhibitor, partial curve, poor fit]

**Q.** Which “activity change, negative = cytotoxicity” value does the source give for COc1cccc([S+](=O)([O-])N2CCC3(C2)C(=NC2CCCC2)NC(=O)N3c2cc(F)cc(F)c2)c1 (stereo not given) here?
**A.** inactive: -14.9%

**Q.** Which Potency does the source give for COc1ccccc1-c1cc2c(ccn2C)c(C(=O)NCC2CCOCC2)n1 here?
**A.** inconclusive: 79.4 µM [inhibitor, partial curve, poor fit]

**Q.** With Cc1c(NCc2cccnc2)cccc1C(=O)N1CCC2(CCNCC2)CC1 as the compound, how does the “activity change, negative = cytotoxicity” value read?
**A.** inactive: -12.8%

**Q.** For COc1ccccc1C(=O)N1CCC2(CC1)CC(=O)Nc1ccccc1O2, which Potency is on record?
**A.** active: 44.7 µM

**Q.** With CC(C)NC(=O)c1ccc(-c2ccc(N3CCCCCC3)nc2)cc1 as the compound, how does the Potency read?
**A.** inconclusive: 44.7 µM [inhibitor, partial curve, poor fit]

**Q.** For COc1ccc(Cc2nnc3ccc(C(=O)NCCCc4ccccc4)cn23)cc1, which “activity change, negative = cytotoxicity” value is on record?
**A.** inactive: -21.8%

**Q.** Which Potency does the source give for O=C(CN1C(=O)NC(c2ccccc2Cl)C2=C1COC2=O)Nc1ccc(C(F)(F)F)cc1 (stereo not given) here?
**A.** inconclusive: 50.1 µM [inhibitor, partial curve, poor fit]

**Q.** Which Potency does the source give for CC(=O)NC1CCN(C(=O)Cc2c(C)[nH]c3c(C)ccc(C)c23)C1 (stereo not given) here?
**A.** inconclusive: 89.1 µM [inhibitor, single point]

**Q.** Which Potency does the source give for COc1cc(=O)n2c(c1C(=O)Nc1cccc(Br)c1)CCCC2 here?
**A.** inconclusive: 89.1 µM [inhibitor, single point]

**Q.** Which Potency does the source give for COc1ccc(C(=O)N(C)C2CCCc3ccccc32)cc1 (stereo not given) here?
**A.** inconclusive: 89.1 µM [inhibitor, partial curve, poor fit]

**Q.** For CC(C)=CCn1c(-c2ccc(F)cc2)cn2cc(C(=O)N3CCCCC3)nc2c1=O, which “activity change, negative = cytotoxicity” value is on record?
**A.** inactive: -32.4%

**Q.** For CCc1ccc(C(=O)N2CCN(C(=O)c3nnn4c3COC(c3ccc(F)cc3)C4)CC2)cc1 (stereo not given), which Potency is on record?
**A.** inconclusive: 79.4 µM [inhibitor, single point]

**Q.** Which Potency does the source give for CC(C)N1C(=O)C(CC(=O)Nc2cccc(OC(F)(F)F)c2)=C2CCCCC21 (stereo not given) here?
**A.** inconclusive: 79.4 µM [inhibitor, partial curve, poor fit]

**Q.** With O=C(Nc1ccc(Oc2ccccc2)cc1)O[C@@H]1CO[C@H]2[C@@H]1OC[C@@H]2NS(=O)(=O)c1cccs1 as the compound, how does the Potency read?
**A.** active: 39.8 µM

**Q.** For COc1ccc(C(=O)N2C[C@@H](CO)[C@H](NC(=O)c3ccccc3)C2)c(OC)n1, which “outcome” value is on record?
**A.** inactive

**Q.** With COc1ccc(OC)c(-c2n[nH]c3c2CC(=O)N(Cc2ccccc2)C3)c1 as the compound, how does the Potency read?
**A.** inconclusive: 112 µM [inhibitor, single point]

**Q.** Which Potency does the source give for COc1ccc2nc3n(c2c1)[C@@H](CNC1CCCCC1)COC3 here?
**A.** inconclusive: 56.2 µM [inhibitor, partial curve, poor fit]

**Q.** Which Potency does the source give for O=C(Cc1cccc(Cl)c1)N1CCc2c(n(Cc3ccccc3)n(-c3ccccc3)c2=O)C1 here?
**A.** inconclusive: 79.4 µM [inhibitor, partial curve, poor fit]

**Q.** With C[S+](=O)([O-])N1CCN(C(=O)c2nc3cccnc3n(C3CC3)c2=O)CC1 as the compound, how does the Potency read?
**A.** inconclusive: 89.1 µM [inhibitor, single point]

**Q.** For Cc1ccc(NC(=O)CN2C(=O)NC3(CCC(C)CC3)C2=O)cc1F (stereo not given), which Potency is on record?
**A.** inconclusive: 50.1 µM [inhibitor, partial curve, poor fit]

**Q.** Which Potency does the source give for CC(C)c1ccc(CNC(=O)c2cc3n(n2)CC(c2ccc(Cl)cc2)OC3)cc1 (stereo not given) here?
**A.** active: 31.6 µM

**Q.** Which Potency does the source give for CSc1ccc(C(=O)N2CCN(Cc3ccccc3)CC(O)C2)cc1 (stereo not given) here?
**A.** inconclusive: 28.2 µM [inhibitor, full curve, poor fit]
